Results reported in the supplement of paper PMC10670038.
Counter-ions that a name gives are not always drawn. ± gives the standard deviation of the averaged measurements. Over roughly 2,000 compounds, “relative cell viability vs DMSO, compound + 0.2 uM CuET” has its median near 1; the lowest 2% begin near 0.25. Some of the results follow.

test system: TE10; test: relative cell viability vs DMSO, compound + 0.2 uM CuET (fraction); TE10 is an esophageal squamous carcinoma line; higher = less cytotoxic; details: 2 µM; co-treatment: CuET (bis(diethyldithiocarbamate)copper) 0.2 uM; 48 h
Protocol: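 TE10 ESCC cells (1,000/well, 384-well plates) were treated with Selleck bioactive library compounds at 2 uM combined with 0.2 uM CuET (copper diethyldithiocarbamate) for 48 h. Viability was read by CellTiter-Glo and expressed relative to DMSO wells. Two technical replicates (A, B).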

Row | SMILES | relative cell viability
1 | Cc1ccc(C(=O)Nc2cccc(C(F)(F)F)c2)cc1Nc1nc(-c2cccnc2)nc2c1cnn2C | 0.904 ± 0.024
2 | Cc1noc(-c2ccc(CSCCC(=O)O)cc2)c1NC(=O)OC(C)c1ccccc1Cl (stereo not given) | 1.08 ± 0.052
3 | COc1ccc(-c2cc(=O)c3c(OC)c(OC)c(OC)c(OC)c3o2)cc1OC [Nobiletin] | 1.05 ± 0.051
4 | O=c1cc[nH]c(=O)[nH]1 [Uracil] | 1.2 ± 0.14
5 | N#Cc1c(Oc2ccc(F)c(NC(=O)Cc3cccc(C(F)(F)F)c3)c2)ccc2nc(NC(=O)C3CC3)sc12 | 0.764 ± 0.15
6 | CCC[C@@H]1C[C@@H](C(=O)N[C@@H]([C@H]2O[C@H](SC)[C@H](O)[C@@H](O)[C@H]2O)[C@@H](C)O)N(C)C1 [Lincomycin HCl] | 1.18 ± 0.025
7 | CO[C@H]1C[C@@H]2CC[C@@H](C)[C@@](O)(O2)C(=O)C(=O)N2CCCC[C@H]2C(=O)O[C@H]([C@H](C)C[C@@H]2CC[C@@H](OC(=O)C(C)(CO)CO)[C@H](OC)C2)CC(=O)[C@H](C)/C=C(\C)[C@@H](O)[C@@H](OC)C(=O)[C@H](C)C[C@H](C)/C=C/C=C/C=C/1C | 0.974 ± 0.031
8 | COc1ccc(-c2cc(=O)c3c(OC)c(OC)c(OC)c(OC)c3o2)cc1 [Tangeretin] | 1.091 ± 0.0071
9 | O=C(O)c1ccc(C=C2SC(=S)N(c3cccc(C(F)(F)F)c3)C2=O)cc1 | 0.926 ± 0.022
10 | CC12CC3CC(C)(C1)CC(N)(C3)C2 [Memantine HCl] | 1.23 ± 0.16
11 | CN1C(C(=O)Nc2ccccn2)=C(O)c2sc(Cl)cc2S1(=O)=O [Lornoxicam] | 0.92 ± 0.05
12 | Cc1ccc(CNc2ncnc3ccc(-c4ccc(CO)o4)cc23)o1 | 0.984 ± 0.068
13 | O=C(Nc1cccnc1)N1CCC(Cc2cccc(Oc3ccc(C(F)(F)F)cn3)c2)CC1 | 1.24 ± 0.067
14 | Cc1cc(C)nc(NS(=O)(=O)c2ccc(NC(=S)NC(=O)COc3ccc(Br)cc3Cl)cc2)n1 | 1.052 ± 0.0024
15 | CC(C)c1nc(CN(C)C(=O)N[C@@H](CCN2CCOCC2)C(=O)N[C@H](CC[C@H](Cc2ccccc2)NC(=O)OCc2cncs2)Cc2ccccc2)cs1 [Cobicistat (GS-9350)] | 0.957 ± 0.025
16 | Cc1cccc(-c2nn3c(c2-c2ccnc4ccc(C(N)=O)cc24)CCC3)n1 | 1.16 ± 0.074
17 | O=C(c1ccccc1)c1ccc2nc(NC(=O)c3csc(C4CCN(c5ncnc6ccsc56)CC4)n3)[nH]c2c1 | 0.875 ± 0.087
18 | Cn1c(N2CCCCS2(=O)=O)nc(C(=O)NCc2ccc(F)cc2)c(O)c1=O | 1.24 ± 0.071

Row | SMILES | relative cell viability
19 | C[N+](C)(C)C[C@H](O)CC(=O)[O-] [L-carnitine] | 0.9637 ± 0.0086
20 | Cn1cnc(=N)c2[nH]cnc21 [3-Methyladenine] | 0.95 ± 0.064
21 | CCS(=O)(=O)N1CCN(c2ccc(Nc3ncc(C(N)=O)c(NC4CC4)n3)cc2)CC1 | 1.12 ± 0.16
22 | C[N+](C)(C)CC(O)CC(=O)[O-] (racemic) [DL-Carnitine HCl] | 0.987 ± 0.082
23 | Nc1nc(N)c2nc(-c3ccccc3)c(N)nc2n1 [Triamterene] | 1.04 ± 0.17
24 | C=C1CC[C@H](O)C/C1=C/C=C1\CCC[C@]2(C)[C@@H]([C@H](C)/C=C/[C@H](C)C(C)C)CC[C@@H]12 [Vitamin D2] | 0.898 ± 0.099
25 | C=CC[N+]1([C@H]2C[C@H]3[C@@H]4CC[C@H]5C[C@H](O)[C@@H](N6CCOCC6)C[C@]5(C)[C@H]4CC[C@]3(C)[C@H]2OC(C)=O)CCCC1 [Rocuronium Bromide] | 1.33 ± 0.06
26 | CC(C)(C)NC(=O)[C@H]1CC[C@H]2[C@@H]3CC[C@H]4NC(=O)C=C[C@]4(C)[C@H]3CC[C@]12C [Finasteride] | 1.06 ± 0.12
27 | Cc1ccc(C(=O)Cn2c3c(sc2=N)CCCC3)cc1 [Pifithrin-α (PFTα)] | 0.853 ± 0.045
28 | Cc1ccc(C(=O)N(CCCN)[C@@H](c2oc3cc(Cl)ccc3c(=O)c2Cc2ccccc2)C(C)C)cc1 | 0.658 ± 0.0021
29 | Cn1nnc2c(C(N)=O)ncn2c1=O [Temozolomide] | 1.1 ± 0.12
30 | O=[N+]([O-])c1cn2c(n1)OC[C@@H](OCc1ccc(OC(F)(F)F)cc1)C2 | 1.15 ± 0.12
31 | COc1ccc(CCC(=O)c2c(O)cc(O[C@@H]3O[C@H](CO)[C@@H](O)[C@H](O)[C@H]3O[C@@H]3O[C@@H](C)[C@H](O)[C@@H](O)[C@H]3O)cc2O)cc1O [Neohesperidin dihydrochalcone (Nhdc)] | 1.19 ± 0.047
32 | CCCCOc1ccc(C(=O)CCN2CCCCC2)cc1 [Dyclonine HCl] | 0.521 ± 0.065
33 | COc1ccc(CCC(=O)Nc2nc3ccc(Cl)cc3s2)cc1OC | 1.04 ± 0.13
34 | C=C1C(=O)O[C@H]2[C@H]1CC/C(C)=C/CC[C@@]1(C)O[C@@H]21 [(-)-Parthenolide] | 0.447 ± 0.029
35 | COC(=O)N[C@H](C(=O)N1CC2(CC2)C[C@H]1c1nc(-c2ccc3c(c2)C(F)(F)c2cc(-c4ccc5[nH]c([C@@H]6[C@H]7CC[C@H](C7)N6C(=O)[C@@H](NC(=O)OC)C(C)C)nc5c4)ccc2-3)c[nH]1)C(C)C [Ledipasvir (GS5885)] | 1.05 ± 0.048
